The campaign covered roughly 310,000 compounds. About 2,200 (0.71%) showed an effect of 50% or more. The effect is printed as a negative number. Some of the results follow.
Biological target: human ether-à-go-go-related gene (hERG) potassium channel (human, UniProt Q12809)
Assay: primary screen, population patch clamp on CHO cells stably expressing hERG

Sequence of human ether-à-go-go-related gene (hERG) potassium channel (Q12809 whole entry, looked up): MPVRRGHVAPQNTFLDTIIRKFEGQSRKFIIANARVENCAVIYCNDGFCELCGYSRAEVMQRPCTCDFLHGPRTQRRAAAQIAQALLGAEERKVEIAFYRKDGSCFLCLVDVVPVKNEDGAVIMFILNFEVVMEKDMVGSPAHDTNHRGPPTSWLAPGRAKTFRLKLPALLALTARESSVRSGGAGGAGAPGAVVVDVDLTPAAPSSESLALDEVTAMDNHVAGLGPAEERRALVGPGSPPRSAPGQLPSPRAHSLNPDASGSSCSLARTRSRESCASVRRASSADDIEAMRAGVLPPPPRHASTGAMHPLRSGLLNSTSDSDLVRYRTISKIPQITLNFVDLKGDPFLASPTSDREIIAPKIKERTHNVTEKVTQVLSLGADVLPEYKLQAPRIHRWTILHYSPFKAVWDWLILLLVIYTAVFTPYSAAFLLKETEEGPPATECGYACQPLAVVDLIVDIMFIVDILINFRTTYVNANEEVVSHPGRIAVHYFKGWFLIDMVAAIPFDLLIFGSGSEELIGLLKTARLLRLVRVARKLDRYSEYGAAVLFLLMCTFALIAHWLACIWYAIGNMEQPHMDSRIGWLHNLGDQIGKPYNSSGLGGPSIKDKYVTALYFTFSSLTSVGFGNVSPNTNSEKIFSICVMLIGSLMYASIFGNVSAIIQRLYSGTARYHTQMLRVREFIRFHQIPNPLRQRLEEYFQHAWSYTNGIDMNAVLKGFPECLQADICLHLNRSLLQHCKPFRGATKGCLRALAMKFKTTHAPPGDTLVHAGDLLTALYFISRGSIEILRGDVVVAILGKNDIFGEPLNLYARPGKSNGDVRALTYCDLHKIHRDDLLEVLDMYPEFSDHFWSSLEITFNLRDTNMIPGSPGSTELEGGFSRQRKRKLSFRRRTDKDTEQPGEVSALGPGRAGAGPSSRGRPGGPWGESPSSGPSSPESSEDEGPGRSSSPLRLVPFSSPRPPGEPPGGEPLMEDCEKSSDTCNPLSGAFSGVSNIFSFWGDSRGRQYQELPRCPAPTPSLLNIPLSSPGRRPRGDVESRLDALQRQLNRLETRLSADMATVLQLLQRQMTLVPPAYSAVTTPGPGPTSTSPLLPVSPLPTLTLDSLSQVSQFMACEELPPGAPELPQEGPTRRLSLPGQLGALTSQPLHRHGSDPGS

| Compound | hERG current change (%, negative = inhibition) at 1uM [%] |
| --- | --- |
| O=[n+]1c2c(n([O-])c3c1CCCC3)CCCCC2 | 1 |
| CC1CCN(Cc2nnnn2CCCC(=O)NC(c2ccccn2)C(F)(F)F)CC1 (stereo not shown) | 8.06 |
| Cc1cc(C(=O)CN2C(=O)NC(CC(C)C)C2=O)c(C)n1-c1ccccc1F (stereo not shown) | 15.3 |
| C/C(=N\NC(=O)OC(C)(C)C)c1ccccc1Br | 16.2 |
| COc1ccccc1/C=N/NC(=O)CCSc1ccccc1 | 8.57 |
| CC(=O)NN1C(=O)c2ccc3c4c(ccc(c24)C1=O)C(=O)N(NC(C)=O)C3=O | 13 |
| O=C(/C=C/c1ccco1)OCn1nnc2ccccc2c1=O | 2.97 |
| CC1CCc2c(C(=O)Nc3ccc(N4CCOCC4)cc3)csc2C1 (stereo not shown) | 4.71 |
| Cc1cc(C)cc(NC(=O)CN2C(=O)NC(C)(c3ccccc3)C2=O)c1 (stereo not shown) | 14.8 |
| O=C(O)c1ccc(NC2=C(Cl)C(=O)c3ccccc3C2=O)cc1 | 15.5 |
| Cc1ccc(NC(=O)COC(=O)Cc2ccsc2)cc1S(=O)(=O)N1CCOCC1 | 1.52 |
| CC(C)(C)C(=O)OCOC(=O)[C@@H]1N2C(=O)[C@@H](N=CN3CCCCCC3)[C@H]2SC1(C)C.Cl | 2.68 |
| Cc1ccc(-c2cc3nc4c(c(=O)n3[nH]2)CCCC4)cc1 | 14.7 |
| Cc1cc([N+](=O)[O-])ccc1N(C)C | 13.5 |
| Cn1cnc(S(=O)(=O)Nc2ccc(OC(F)(F)F)cc2)c1 | 11.7 |
| CCSC1=C(C#N)C(c2cccc(OC)c2)CC(=O)N1 (stereo not shown) | 6.87 |
| O=C(CC1C(=O)NCCN1Cc1cccc(F)c1)NCCCCCN1CCOCC1 (stereo not shown) | 9.28 |
| O=C(O)C(=O)O.O=C1CC(Cc2ccccc2)C(=O)N1CCCn1ccnc1 (stereo not shown) | -2.04 |
| Brc1cccc(-c2nnc3sc(CN4CCCCC4)cn23)c1 | 6.51 |
| COC(=O)c1cc(NC(=O)COC(=O)C2CCC2)cc(C(=O)OC)c1 | 12.5 |
| O=C(Nc1nc2ccccc2s1)NC1CCCCC1 | 8.46 |
| Cc1c(Cl)cccc1N/C(=N/S(=O)(=O)c1cccs1)c1ccccc1 | 12.6 |
| COc1ccc(Br)cc1CN1CCCC(C(=O)N2CCCCCC2)C1.O=C(O)C(=O)O (stereo not shown) | -22.1 |
| CCOc1ccc(C(=O)Nc2c(C(=O)N3CCC(N4CCCCC4)CC3)oc3ccccc23)cc1 | -82 |
| CC(C)CNS(=O)(=O)c1ccc(S(=O)(=O)N2CCC(N3CCCCC3)CC2)cc1 | 9.1 |
| O=C(NCCCN1CCOCC1)c1cc2c(s1)-c1ccccc1OC2 | -0.494 |
| COc1ccc(-c2ccc(S(=O)(=O)n3nc(OC(=O)c4cccs4)cc3N)cc2)cc1 | 8.64 |
| CC(=O)c1ccc(NC(=S)Nc2cccc(S(=O)(=O)Nc3c(C)n(C)n(-c4ccccc4)c3=O)c2)cc1 | 11.4 |

| Compound | hERG current change (%, negative = inhibition) at 1uM [%] |
| --- | --- |
| COc1ccc(N(C)C(=O)CCS(=O)(=O)c2cccc3nsnc23)cc1 | 7.73 |
| N#CC1=C(SCC(=O)Nc2cccc3cccnc23)NC(=O)C(C#N)C12CCCCC2 (stereo not shown) | -18.4 |
| O=S(=O)(O)c1ccc(N=NNc2ccc(Br)cc2)cc1 | 14.9 |
| CCOc1ccc(NC(=O)C(=O)NCCN2CCN(C(=O)c3ccc(C)cc3)CC2)cc1 | -65.5 |
| Cc1ccc(N(O)C(=O)NCCCCNC(=O)N(O)c2ccc(C)cc2)cc1 | 12.2 |
| CCOC(=O)c1[nH]c2ccccc2c1NC(=O)NC1CCCCC1 | 5.94 |
| COC(=O)c1c(-c2ccsc2)oc2ccc(-c3cc(OC)c(OC)c(OC)c3)cc12 | 14.6 |
| COC(=O)c1cn(NC(=O)Cc2ccccc2OC)c(=O)c2ccccc12 | 16.1 |
| Cc1oc(-c2ccccc2Cl)nc1CS(=O)CC(=O)NCc1ccc2c(c1)OCO2 (stereo not shown) | 3.74 |
| O=C(Cc1ccccc1)NC(C(=O)O)C(O)c1ccc([N+](=O)[O-])cc1 (stereo not shown) | 13.8 |
| Cl.OCCNc1nc(Nc2ccc(O)cc2)nc2ccccc12 | 2.41 |
| O=C(CSc1nnc(Cc2ccccc2)n1-c1ccccc1)N1CCOCC1 | 1.74 |
| COc1ccc(NC(=O)CSc2ccc3nnc(-c4ccccn4)n3n2)c(OC)c1 | -0.6 |
| Cc1cc(C)nc(N/N=C/C2=C(O)CC(c3ccccc3)CC2=O)n1 (stereo not shown) | 9.86 |
| Cc1ccc(S(=O)(=O)Oc2ccc(/C=C(/NC(=O)c3ccccc3)C(=O)Nc3ccccc3)cc2)cc1 | 16.6 |
| Cn1c(SCC(=O)N2CCCc3ccccc32)nc2cccnc21 | 14.5 |
| CCC(=O)N1c2ccccc2C(N(C(=O)CC)c2ccccc2)CC1C (stereo not shown) | 6.77 |
| COc1ccc(N2CC(C(=O)Nc3ccc(N4CCOCC4)cc3)CC2=O)cc1 (stereo not shown) | 6.07 |
| COc1ccc(C(=O)Nc2cccc(C(=O)NCc3ccccc3)c2)cc1 | 10.2 |
| COc1ccc(NC(=O)Nc2ccc(N(C)C)cc2)cc1 | 17.4 |
| CC1Cc2ccccc2N1C(=O)c1cc2cccnc2n(C)c1=O (stereo not shown) | 13.4 |
| CC1(C)N=c2ccc([N+](=O)[O-])c(N)c2=[N+]1[O-] | -1.78 |
| O=C(Nc1ccnn1C1CCN(Cc2cccc(OCCO)c2)CC1)C1CC1 | 13.8 |
| Cn1nc(-c2ccccc2)cc1NC(=O)Nc1ccc(C(C)(C)C)cc1 | 11.4 |
| CCOC(=O)c1cc(-c2ccccc2)n(CC2CC(c3ccc(OC)cc3)=NO2)n1 (stereo not shown) | 4.59 |
| CN(C)c1cccc(C(=O)N2CCC(n3nccc3NC(=O)C3CCOC3)CC2)c1 (stereo not shown) | 8.43 |
| COc1ccc(C(=O)NCCOc2cccc(OC)c2)cc1 | 10.3 |
